Laboratory results taken from patent US10894817B2, “Fatty acid modified urocortin-2 analogs for the treatment of diabetes and chronic kidney disease” (priority 2016, dated 2021).
For at least one compound, name, drawing or mass did not settle the structure. Some entries share one result that the patent states for a list of compounds. Starred links: 1 amine or outer side, 2 acyl side, 3 side chain; linkers in the order of their positions; H or OH if unused. Non-standard residues stand in square brackets, D forms with d. Residues, ends and D or L forms follow the SMILES beside them. Groups on a side chain read outwards from the residue. *: point of attachment. C20 diacid = O=C(O)CCCCCCCCCCCCCCCCCCC(=O)*; γGlu = O=C(O)[C@H](CCC(=O)[*:2])N[*:1]; NMeI = CC[C@H](C)[C@H](NC)C(=O)O; AEEA = NCCOCCOCC(=O)O

Legend:
human CRHR1 = target: T1, human CRHR1 (Homo sapiens, UniProt P34998); assay: human CRHR1 cell-based cAMP assay (Y79 cells); details: statement in words; cAMP assays
T1 construct: which expresses endogenous human CRHR1; host or cells: Y79 human retinoblastoma cells
T1 sequence (P34998 24-415): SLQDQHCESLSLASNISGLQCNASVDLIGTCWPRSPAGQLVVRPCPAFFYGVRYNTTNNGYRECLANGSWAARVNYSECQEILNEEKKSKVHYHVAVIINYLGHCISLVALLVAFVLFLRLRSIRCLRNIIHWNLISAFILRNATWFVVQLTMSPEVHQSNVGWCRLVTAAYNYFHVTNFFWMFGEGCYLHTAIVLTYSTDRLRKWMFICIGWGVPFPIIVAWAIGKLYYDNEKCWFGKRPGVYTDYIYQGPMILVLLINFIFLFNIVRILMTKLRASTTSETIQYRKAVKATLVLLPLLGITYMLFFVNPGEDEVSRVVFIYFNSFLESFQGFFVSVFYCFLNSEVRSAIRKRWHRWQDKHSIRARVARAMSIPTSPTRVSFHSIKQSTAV
Method: CRHR agonistic activity is measured in a cell-based cAMP assay. Serial dilutions of the test peptides are made in assay buffer containing Hank's Balanced Salt Solution (HBSS, without phenol red) supplemented with 20 mM HEPES and 0.05% lactalbumin enzymatic hydrolysate (LAH) (“assay buffer”). The highest concentration that is used starts from 1 μM in the human CRHR2b, whereas 100 μM starting concentration is used in the human CRHR1 assay. A one to three dilution of the test peptides is used in both assays.
The human Retinoblastoma cell line Y79 (ATCC #HTB-18), which expresses endogenous human CRHR1, is used in the human CRHR1 assay. The cells are grown in RPMI 1640 (Hyclone, #SH30255) containing 20% fetal bovine serum and 10 mM HEPES, in suspension culture. Cells are centrifuged to remove the culture media and washed once in HBSS supplemented with 20 mM HEPES. The cells are resuspended in the assay buffer and 20,000 cells are used per treatment in the human CRHR1 assay.
The cells are dispensed into Costar 96-well black polystyrene half area EIA/RIA plates (Corning Incorporated, Corning, N.Y.) followed by the addition of the diluted peptides, each at a volume of 20 μL. The agonist induced cAMP levels are detected using a HTRF cAMP Dynamic 2 kit (CisBio, Bedford, Mass.). After incubation at 37° C. for 30 min, the assay is stopped by cell lysis via the addition of 20 μL of d2-labeled cAMP and followed by 20 μL of cryptate-labeled anti-cAMP antibody, as described by the manufacturer. Cellular cAMP (as a result of agonist stimulation) competes with the d2-labeled cAMP for binding to the antibody. HTRF detection is performed on an Envision plate reader (Perkin Elmer Life and Analytical Sciences, Waltham, Mass.) by measuring ratiometric emission at 620 and 665 nm after excitation at 320 nm.
The data are converted to picomoles of cAMP using a standard curve obtained from the same assay performed with varying concentrations of unlabeled cAMP. Percent of the maximum activation of the cells is calculated using converted picomole cAMP data by comparing to the amount of cAMP produced by 1 μM human UCN2 for the human CRHR2b or 1 μM human UCN1 for the human CRHR1 assay. The data are analyzed using a Curve Fitting Tool to calculate ED50. Numeric values shown below in Table 1 represent the mean of multiple runs (number of runs shown in parentheses) following the mean value±SEM.

DIO mice [1] = assay: In vivo muscle glucose uptake in DIO mice; set-up: species or system C57BL6 mice; details: male DIO mice, s.c. every three days for 14 days
human CRHR2b = target: T2, human CRHR2b (Homo sapiens, UniProt Q13324); assay: human CRHR2b cell-based cAMP assay; details: statement in words
T2 construct: expressed in transfected cells; host or cells: Chinese Hamster Ovary (CHO) cells, transient transfection
T2 sequence (Q13324 1-438 isoform Q13324-2): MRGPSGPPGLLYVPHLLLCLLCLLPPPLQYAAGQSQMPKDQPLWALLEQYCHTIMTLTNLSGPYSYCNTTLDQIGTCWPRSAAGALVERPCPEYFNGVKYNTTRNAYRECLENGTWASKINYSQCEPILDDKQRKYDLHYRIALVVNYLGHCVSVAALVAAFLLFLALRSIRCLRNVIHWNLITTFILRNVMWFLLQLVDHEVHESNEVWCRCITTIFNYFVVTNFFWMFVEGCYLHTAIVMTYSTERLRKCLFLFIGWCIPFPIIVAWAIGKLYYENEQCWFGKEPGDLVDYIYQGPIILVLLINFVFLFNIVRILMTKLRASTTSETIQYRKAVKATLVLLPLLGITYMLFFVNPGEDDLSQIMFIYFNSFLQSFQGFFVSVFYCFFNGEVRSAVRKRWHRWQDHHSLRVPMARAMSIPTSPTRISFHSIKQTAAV
Method: CRHR agonistic activity is measured in a cell-based cAMP assay. Serial dilutions of the test peptides are made in assay buffer containing Hank's Balanced Salt Solution (HBSS, without phenol red) supplemented with 20 mM HEPES and 0.05% lactalbumin enzymatic hydrolysate (LAH) (“assay buffer”). […] A one to three dilution of the test peptides is used in both assays. Receptor over-expressing Chinese Hamster Ovary (CHO) cell line is used for the human CRHR2b assay. […] AF011406.1). Forty-eight hours after the transfection, the cells are centrifuged to remove the culture media and resuspended in fetal bovine serum containing 5% DMSO. They are cryofrozen and stored in vials in liquid nitrogen (20×10^6 cells/ml/vial). On the day of the assay, cells are thawed and resuspended in cold 30 ml culture media supplemented with 20 mM HEPES. The cells are then centrifuged to remove the media and washed once with HBSS supplemented with 20 mM HEPES. Finally, following the last centrifugation, the cells are resuspended in assay buffer. Thirty-thousand cells are used in the human CRHR2b assay for each treatment. The cells are dispensed into Costar 96-well black polystyrene half area EIA/RIA plates (Corning Incorporated, Corning, N.Y.) followed by the addition of the diluted peptides, each at a volume of 20 μL. The agonist induced cAMP levels are detected using a HTRF cAMP Dynamic 2 kit (CisBio, Bedford, Mass.). After incubation at 37° C. for 30 min, the assay is stopped by cell lysis via the addition of 20 μL of d2-labeled cAMP and followed by 20 μL of cryptate-labeled anti-cAMP antibody, as described by the manufacturer. Cellular cAMP (as a result of agonist stimulation) competes with the d2-labeled cAMP for binding to the antibody. HTRF detection is performed on an Envision plate reader (Perkin Elmer Life and Analytical Sciences, Waltham, Mass.) by measuring ratiometric emission at 620 and 665 nm after excitation at 320 nm. The data are converted to picomoles of cAMP using a standard curve obtained from the same assay performed with varying concentrations of unlabeled cAMP. […] The data are analyzed using a Curve Fitting Tool to calculate ED50. Numeric values shown below in Table 1 represent the mean of multiple runs (number of runs shown in parentheses) following the mean value±SEM.

DIO mice [2] = assay: In vivo Diet Induced Obesity (DIO) model, chronic dose administration; set-up: species or system C57BL6 mice
[3] = male DIO mice, 24 nmol/kg s.c. days 1,4,7,10,13
[4] = male DIO mice, 24 nmol/kg s.c. days 1,4,7,10,13, ipGTT day 16
[5] = s.c. every third day for 15 consecutive days, statement in words

SMILES: CC[C@H](C)[C@H](NC)C(=O)N[C@H](C(=O)N[C@H](C(=O)N[C@@H](CO)C(=O)N[C@@H](CC(C)C)C(=O)N[C@@H](CC(=O)O)C(=O)N[C@H](C(=O)N1CCC[C@H]1C(=O)N[C@H](C(=O)NCC(=O)N[C@@H](CC(C)C)C(=O)N[C@@H](CC(C)C)C(=O)N[C@@H](CCC(N)=O)C(=O)N[C@H](C(=O)N[C@@H](CC(C)C)C(=O)N[C@H](C(=O)N[C@@H](CCC(=O)O)C(=O)N[C@@H](CCC(N)=O)C(=O)N[C@@H](CCC(=O)O)C(=O)N[C@@H](CCCCN)C(=O)N[C@@H](CCC(N)=O)C(=O)N[C@@H](CCC(=O)O)C(=O)N[C@@H](CCCCN)C(=O)N[C@@H](CCC(=O)O)C(=O)N[C@@H](CCCCN)C(=O)N[C@@H](CCC(N)=O)C(=O)N[C@@H](CCC(N)=O)C(=O)N[C@@H](C)C(=O)N[C@@H](CCCCNC(=O)COCCOCCNC(=O)COCCOCCNC(=O)CC[C@H](NC(=O)CC[C@H](NC(=O)CCCCCCCCCCCCCCCCCCC(=O)O)C(=O)O)C(=O)O)C(=O)N[C@H](C(=O)N[C@@H](CC(N)=O)C(=O)N[C@@H](C)C(=O)N[C@@H](CCC(=O)O)C(=O)N[C@H](C(=O)N[C@@H](CC(C)C)C(=O)N[C@@H](C)C(=O)N[C@@H](CCC(N)=O)C(=O)N[C@H](C(N)=O)C(C)C)[C@@H](C)CC)[C@@H](C)O)[C@@H](C)CC)[C@@H](C)CC)[C@@H](C)CC)C(C)C)[C@@H](C)O)C(C)C [Example 7] (H-[NMeI]VTSLDVPIGLLQILIEQEKQEKEKQQAK([AEEA-AEEA-γGlu-γGlu-C20 diacid])TNAEILAQV-NH2)
- selectivity for CRHR2 over CRHR1 (human CRHR1): selective for CRHR2, over CRHR1
- Combined EDL muscle Weight (DIO mice [1]): 27.18 ± 0.89 mg
- Combined Soleus muscle Weight (DIO mice [1]): 22.42 ± 0.50 mg
- Tissue 2-Deoxyglucose Uptake, EDL (DIO mice [1]; Saline (no insulin)): 9.05 ± 1.6 mol/100 g/min
- Tissue 2-Deoxyglucose Uptake, RQ (DIO mice [1]; Saline (no insulin)): 4.97 ± 0.74 mol/100 g/min
- Tissue 2-Deoxyglucose Uptake, Soleus (DIO mice [1]; Saline (no insulin)): 2.51 ± 0.32 mol/100 g/min
- Tissue 2-Deoxyglucose Uptake, WQ (DIO mice [1]; Saline (no insulin)): 5.33 ± 1.06 mol/100 g/min
- Tissue 2-Deoxyglucose Uptake, EDL (DIO mice [1]; insulin 0.5 U/kg): 14.59 ± 1.09 mol/100 g/min
- Tissue 2-Deoxyglucose Uptake, RQ (DIO mice [1]; insulin 0.5 U/kg): 13.33 ± 1.36 mol/100 g/min
- Tissue 2-Deoxyglucose Uptake, Soleus (DIO mice [1]; insulin 0.5 U/kg): 7.22 ± 1.40 mol/100 g/min
- Tissue 2-Deoxyglucose Uptake, WQ (DIO mice [1]; insulin 0.5 U/kg): 8.20 ± 0.96 mol/100 g/min
- Tissue 2-Deoxyglucose Uptake, EDL (DIO mice [1]; insulin 5 U/kg): 15.44 ± 1.62 mol/100 g/min
- Tissue 2-Deoxyglucose Uptake, RQ (DIO mice [1]; insulin 5 U/kg): 16.65 ± 1.27 mol/100 g/min
- Tissue 2-Deoxyglucose Uptake, Soleus (DIO mice [1]; insulin 5 U/kg): 16.51 ± 1.78 mol/100 g/min
- Tissue 2-Deoxyglucose Uptake, WQ (DIO mice [1]; insulin 5 U/kg): 10.85 ± 0.33 mol/100 g/min
- CRHR2 agonist activity in a cAMP assay (human CRHR2b): have CRHR2 agonist activity
- Body weight change (% change ± SEM) (DIO mice [2]; [3]): −11%
- Fasting blood glucose (mg/dL ± SEM) (DIO mice [2]; [3]): 87 mg/dL
- Fasting serum insulin (ng/mL ± SEM) (DIO mice [2]; [3]): 0.26 ng/mL
- Blood glucose AUC during ipGTT (DIO mice [2]; [4]): 26495 mg/dL × min^−1
- Serum insulin AUC during ipGTT (DIO mice [2]; [4]): 144 ng/mL × min^−1
- fasting serum glucose and serum insulin (DIO mice [2]; [5]): reduction of fasting serum glucose and serum insulin
- glucose tolerance (glucose and insulin AUC during IPGTT) (DIO mice [2]; [5]): improvements in: glucose tolerance
- total body weight and body composition vs Vehicle DIO mice (DIO mice [2]; s.c. once every three days for 15 consecutive days, statement in words): decreases in: total body weight and improved body composition
